# Assay results taken from PubChem BioAssay AID1345082 (National Center for Advancing Translational Sciences (NCATS), 2018).
# In all, about 94,000 compounds went through this assay and about 4,000 (4.3%) were called active. The shares of active, inactive and inconclusive entries below differ from those in the screen. Calls follow the shape of the dose curve; as a rule, active = well fitted inhibition curve with a large enough effect; inconclusive = small, poorly fitted or top-dose-only effect; inactive = no such curve, though single readings can be large or run the other way. Potencies beside an inconclusive call are fits to weak or partial responses and may not hold up.
# Experiment: Cytotoxic Profiling in NIH 3T3 Cell Line of Diverse Libraries Using Quantitative High-Throughput Screening; also: nearly all actives have a fitted effect of over 55% in size
# Conditions: NIH 3T3 viability, CellTiter-Glo ATP luminescence, 48-72 h; activity change, negative = cytotoxicity: at 96.7 µM (top of the series); series mostly up to 96.7 µM
# How it was run: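 Viability of NIH 3T3 cells after 48 or 72 hr compound treatment at 37 °C was assessed by CellTiter-Glo, with luminescence imaged following a 10 min room-temperature step.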
# % is scaled to controls: 0 for no effect and ±100 for the full control effect; potency is read from the fitted curve at half-maximal effect; tags tell the direction and shape of the fitted curve.
SMILES,Potency,"activity change, negative = cytotoxicity",outcome
CC(=O)NC1(C)CCN(Cc2cccc(-c3ccc4c(c3)OCCN4C)c2)C1 (stereo not given),active: 89.1 µM,–,–
Cc1cc(C(=O)N2CCC3(CC2)CC(c2ccccc2)C(=O)N(C)C3)n[nH]1 (stereo not given),–,inactive: -23.1%,–
O=C(NC1CCCN(c2cc(N3CCCC3)ncn2)C1)c1ccccc1 (stereo not given),"inconclusive: 44.7 µM [inhibitor, partial curve, poor fit]",–,–
COC(=O)[C@H]1CN(C(=O)NC(C)C)CCN1C(=O)c1cccnc1,–,inactive: -12% [at 174 µM],–
Cc1noc(C)c1S(=O)(=O)NCC1(COc2ccc(C(F)(F)F)cn2)C[C@@H](O)[C@@H](O)C1 (stereo not given in full),–,–,inactive
COc1cccc(CNC(=O)C2CN(C(C)C)C(=O)N2)c1 (stereo not given),–,inactive: -24.3% [at 138 µM],–
CCN(CC)C(=O)CN1C(=O)NC2(CCC(C(C)(C)C)CC2)C1=O (stereo not given),"inconclusive: 70.8 µM [inhibitor, single point]",–,–
O=C(c1ccc(Cl)cc1)N1CCC2(CC1)C(=O)NCN2C(=O)CCCN1CCCC1,–,inactive: -8.57%,–
O=C(NC1CCS(=O)(=O)C1)c1cc2c(s1)CN(C1CCCC1)C2 (stereo not given),"inconclusive: 50.1 µM [inhibitor, partial curve, poor fit]",–,–
O=C(NCc1cccc(C(F)(F)F)c1)c1ccc2nc(-c3ccccn3)oc2c1,active: 39.8 µM,–,–
CC(=O)N1CCN(C(=O)c2cccc(-c3ccco3)c2)CC(O)C1 (stereo not given),–,inactive: -1.55%,–
c1ccc(Oc2cc3c(cn2)NCCN(Cc2ccsc2)C3)cc1,–,inactive: -22.8% [at 138 µM],–
O=C(NCc1ccc2c(c1)OCO2)C1CN(C2CCCCC2)C(=O)N1 (stereo not given),–,inactive: -28.4% [at 138 µM],–
O=C(Cc1ccc(F)cc1)N1CCc2nc(C3CC3)nc(-c3ccc(Cl)cc3)c2C1,"inconclusive: 44.7 µM [inhibitor, partial curve, poor fit]",–,–
Cc1noc(-c2ccc(OC3CN(C(=O)NC4CCCCC4)C3)cc2)n1,"inconclusive: 39.8 µM [inhibitor, partial curve]",–,–
O=C(NC1CC1)C1CCCN1C(=O)c1cccc(-c2ccccn2)c1 (stereo not given),–,inactive: -17% [at 138 µM],–
CN1c2cc(C(=O)N3CCN(c4ccccc4F)CC3)ccc2C(=O)N2CCCCCC21 (stereo not given),"inconclusive: 7.08 µM [inhibitor, partial curve, poor fit]",–,–
COc1ccc(C(=O)N(C)Cc2ccc(-c3ccccc3)cc2)cc1,"inconclusive: 56.2 µM [inhibitor, partial curve, poor fit]",–,–
Cc1nn(C(=O)CCCC(=O)N2CCC(Cc3nc(C4CCOCC4)no3)CC2)c2ccccc12,"inconclusive: 50.1 µM [inhibitor, partial curve, poor fit]",–,–
COCC(=O)NC1CCC12CCN(Cc1cccnc1)CC2 (stereo not given),–,–,inactive
Cn1ncc2c(C(=O)NCc3ccccc3Cl)cc(-c3ccccc3C(F)(F)F)nc21,"inconclusive: 28.2 µM [inhibitor, full curve]",–,–
COCCOCC(=O)N1CCC2(CC1)NCCc1c2[nH]c2ccc(OC)cc12,–,–,inactive

SMILES,Potency,"activity change, negative = cytotoxicity",outcome
c1ccc(-c2noc(-c3cncnc3N3CCCCCC3)n2)cc1,"inconclusive: 44.7 µM [inhibitor, partial curve, poor fit]",–,–
CCC1Oc2ccc(NC(=O)COc3ccccc3)cc2CN(Cc2ccc(F)cc2)C1=O (stereo not given),"inconclusive: 44.7 µM [inhibitor, partial curve, poor fit]",–,–
COc1ccccc1Cn1c(=O)c(C(=O)NC(C)c2ccc(F)cc2)nc2cccnc21 (stereo not given),"inconclusive: 44.7 µM [inhibitor, partial curve, poor fit]",–,–
CC(=O)NC[C@H]1OC[C@@H](N(Cc2cccc(C#N)c2)Cc2cccc(C#N)c2)[C@@H]1O,"inconclusive: 89.1 µM [inhibitor, partial curve, poor fit]",–,–
CC(Nc1ccc(-c2nc(CCCc3ccccc3)no2)cn1)c1cnn(C)c1 (stereo not given),"inconclusive: 56.2 µM [inhibitor, partial curve, poor fit]",–,–
O=C(c1ccccc1)N1CCC(c2n[nH]c(=O)n2-c2ccccc2)CC1,"inconclusive: 70.8 µM [inhibitor, single point]",–,–
CN(CC1CCOC1)C(=O)Nc1cccc(Cl)c1F (stereo not given),–,–,inactive
CCC1Oc2ccc(NC(=O)Cc3ccc(F)cc3)cc2CN(Cc2ccccc2F)C1=O (stereo not given),"inconclusive: 31.6 µM [inhibitor, full curve]",–,–
Cn1nccc1C(=O)N1CCC(c2noc(C3CC3)n2)C1 (stereo not given),–,inactive: -1.1%,–
CCCCCNC(=O)c1cc(-c2cccc(F)c2)nc2c1cnn2C,"inconclusive: 31.6 µM [inhibitor, partial curve, poor fit]",–,–
COc1ccc(-c2cc3c(ccn3C(C)C)c(C(=O)NCc3c(C)cc(C)[nH]c3=O)n2)cn1,"inconclusive: 50.1 µM [inhibitor, partial curve, poor fit]",–,–
Cn1nc(C2CCN(C(=O)c3cnccn3)CC2)c2c1CCOC2,–,inactive: 2.12%,–
Cc1nn(C)cc1C(=O)N1C[C@@H](CO)[C@H](c2ccccn2)C1,–,inactive: 1.16%,–
N#Cc1ccccc1OCc1nnc(C(=O)N2CCC[C@@H]2c2nc3ccccc3[nH]2)n1-c1ccccc1,"inconclusive: 56.2 µM [inhibitor, partial curve, poor fit]",–,–
O=C1COc2ccc(OCc3ccccc3)nc2CN1CCOc1ccccc1,"inconclusive: 56.2 µM [inhibitor, partial curve, poor fit]",–,–
COc1ccccc1-c1cnc(Nc2ccc3c(c2)OCCO3)c2c1CCO2,–,inactive: -26.6% [at 138 µM],–
COc1cccc(-c2cccc(C(=O)N3CCCC3C(=O)N3CCC(c4ccccc4)CC3)c2)c1 (stereo not given),"inconclusive: 50.1 µM [inhibitor, partial curve, poor fit]",–,–
O=C(C1CCCN1C(=O)NC1CCCC1)N1CCCC(c2nc3ncccc3[nH]2)C1 (stereo not given),–,inactive: -11.1%,–
Cc1ccc(F)c(OCC(=O)c2ccc3c(c2)N(C(C)C(=O)NCc2ccco2)C(=O)CO3)c1 (stereo not given),"inconclusive: 50.1 µM [inhibitor, partial curve, poor fit]",–,–
N#Cc1cccc(C(=O)N2CC(COc3ccccc3)C3(C2)CN(c2ccccc2)C3)c1 (stereo not given),–,inactive: -18.4% [at 138 µM],–
O=C(c1ccc2c(c1)OCO2)N1CCN(c2ccnc3ccnn23)CC1,"inconclusive: 50.1 µM [inhibitor, partial curve, poor fit]",–,–
COCCN1CC(C)(C)CN(C(=O)c2ccc(OC)cc2)CC1=O,"inconclusive: 50.1 µM [inhibitor, partial curve, poor fit]",–,–

SMILES,Potency,"activity change, negative = cytotoxicity",outcome
CCc1cccc2c(C(CC(=O)N3CCCCC3)c3cccc(OC)c3)c[nH]c12 (stereo not given),"inconclusive: 50.1 µM [inhibitor, single point]",–,–
Cn1ccc2c(C(=O)NCc3cccnc3)nc(-c3ccc([S+](C)(=O)[O-])cc3)cc21,"inconclusive: 35.5 µM [inhibitor, full curve, poor fit]",–,–
O=C(N[C@@H]1CCOC[C@H]1Oc1cccc(F)c1)c1cnc2ccccn2c1=O,–,inactive: -31.4%,–
O=C(NCCNC(=O)c1ccc(Cl)nc1)c1ccc(-c2cccc(C(F)(F)F)c2)cc1,"inconclusive: 89.1 µM [inhibitor, partial curve, poor fit]",–,–
COC(=O)CNC(=O)C1=NOC2CN(C(=O)Nc3cccnc3)CC12 (stereo not given),"inconclusive: 89.1 µM [inhibitor, partial curve, poor fit]",–,–
Cc1c(Cl)cccc1Nc1ncncc1-c1nc(-c2ccccc2)no1,–,–,inactive
CN(C(=O)Cn1c2c(c(=O)n1Cc1ccccc1)CCN(Cc1ccccc1)C2)c1ccccc1,"inconclusive: 22.4 µM [inhibitor, partial curve, poor fit]",–,–
COc1ccccc1CCn1cnc(-c2ccccc2)c1-c1cn(C)nc1C,"inconclusive: 39.8 µM [inhibitor, partial curve]",–,–
CCCCCC(=O)N1CC(=O)N(Cc2cccc(F)c2)CC(O)C1 (stereo not given),"inconclusive: 50.1 µM [inhibitor, partial curve, poor fit]",–,–
CCc1nc2c(c(-c3ccc(Cl)cc3)n1)CCN(C(=O)c1ccc(C(F)(F)F)cc1)CC2,"inconclusive: 56.2 µM [inhibitor, partial curve, poor fit]",–,–
c1cc(CN2CCc3c(sc4ncnc(N5CCCC5)c34)C2)ccn1,"inconclusive: 22.4 µM [inhibitor, full curve, poor fit]",–,–
COc1ccccc1N1CCCc2ncc(C(=O)NCCc3c[nH]c4ccccc34)cc21,"inconclusive: 31.6 µM [inhibitor, full curve]",–,–
COc1ccc(F)cc1-c1cccc(C(=O)NCCNC(C)=O)c1,"inconclusive: 79.4 µM [inhibitor, partial curve, poor fit]",–,–
COc1cc(NC(=O)c2ccc3c(c2)N(C)C2CCCCCN2C3=O)cc(OC)c1OC (stereo not given),active: 35.5 µM,–,–
COc1ccc(CC(=O)Nc2ccc3c(c2)CN(Cc2cccc(OC)c2OC)C(=O)C(C)O3)cc1 (stereo not given),–,inactive: -18.7%,–
O=C1NCCCCCCN(C(=O)CCc2ccccc2)[C@H]2C[C@H](c3nc(-c4cnccn4)no3)C[C@@H]12,–,inactive: -24.3%,–
Cc1nc(-c2ccccc2)n(Cc2ccc(C#N)cc2)c(=O)c1CCO,"inconclusive: 31.6 µM [inhibitor, partial curve]",–,–
CC(=O)N1C2CCC1CN(c1ccc(C(F)(F)F)cc1)C2,"inconclusive: 79.4 µM [inhibitor, partial curve]",–,–
Cc1ccc(S(=O)(=O)N(C)C2CCCc3ccccc32)cc1 (stereo not given),"inconclusive: 79.4 µM [inhibitor, partial curve]",–,–
O=C(NC1CCCCC1)c1cnc2c(c1)N([S+](=O)([O-])c1cccnc1)CCC2,active: 89.1 µM,–,–
NC(=O)[C@@H](Cc1c[nH]c2ccccc12)NC(=O)[C@@]1(O)C[C@@H](O)[C@H](O)[C@@H](NC(=O)c2ccc(F)c(Cl)c2)C1,–,inactive: 1.18%,–
